Results: the supplement of paper PMC8728848
This is one part of the list.

How the values were obtained:
Assay in all cases: glycan array binding signal (z-score within array); higher = stronger binding
Settings in all cases: glycan notation: IUPAC condensed, linker removed
[1] = molecular target: Gal(b1-3)GlcNAc(b1-6)[Gal(b1-3)]GalNAc
Method in brief: (§1)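 Glycan array binding is given as a within-array Z-score, which can be read as non-binding when negative. The arrays, 3228 of them, came from the Consortium for Functional Glycomics database and were retained only where the protein sequence was available. Z-scores were averaged across arrays of the same protein sequence at different concentrations or buffers and across linkers.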

Gal(b1-3)GlcNAc6S = molecular target: Gal(b1-3)GlcNAc6S
Method in brief: as §1

[2] = molecular target: Gal(b1-3)[Fuc(a1-4)]GlcNAc
Method in brief: as §1

[3] = molecular target: Gal(b1-3)[Fuc(a1-4)]GlcNAc(b1-2)Man
Method in brief: as §1

[4] = molecular target: Gal(b1-3)[Fuc(a1-4)]GlcNAc(b1-2)Man(a1-3)[Gal(b1-3)[Fuc(a1-4)]GlcNAc(b1-2)Man(a1-6)]Man(b1-4)GlcNAc(b1-4)[Fuc(a1-6)]GlcNAc
Method in brief: as §1

[5] = molecular target: Gal(b1-3)[Fuc(a1-4)]GlcNAc(b1-3)Gal(b1-3)[Fuc(a1-4)]GlcNAc
Method in brief: as §1

[6] = molecular target: Gal(b1-3)[Fuc(a1-4)]GlcNAc(b1-3)Gal(b1-4)[Fuc(a1-3)]GlcNAc
Method in brief: as §1

[7] = molecular target: Gal(b1-3)[Fuc(a1-4)]GlcNAc(b1-6)GalNAc
Method in brief: as §1

[8] = molecular target: Gal(b1-3)[GlcNAc(b1-6)]GalNAc
Method in brief: as §1

[9] = molecular target: Gal(b1-3)[Neu5Ac(a2-6)]GalNAc
Method in brief: as §1

[10] = molecular target: Gal(b1-3)[Neu5Ac(a2-6)]GlcNAc(b1-4)Gal(b1-4)Glc
Method in brief: as §1

[11] = molecular target: Gal(b1-3)[Neu5Ac(b2-6)]GalNAc
Method in brief: as §1

Gal(b1-4)Gal = molecular target: Gal(b1-4)Gal
Method in brief: as §1

[12] = molecular target: Gal(b1-4)GalNAc(a1-3)[Fuc(a1-2)]Gal(b1-4)GlcNAc
Method in brief: as §1

[13] = molecular target: Gal(b1-4)GalNAc(b1-3)[Fuc(a1-2)]Gal(b1-4)GlcNAc
Method in brief: as §1

Gal(b1-4)Glc = molecular target: Gal(b1-4)Glc
Method in brief: as §1

Gal(b1-4)Glc6S = molecular target: Gal(b1-4)Glc6S
Method in brief: as §1

Gal(b1-4)GlcNAc = molecular target: Gal(b1-4)GlcNAc
Method in brief: as §1

[14] = molecular target: Gal(b1-4)GlcNAc(a1-6)Gal(b1-4)GlcNAc
Method in brief: as §1

Gal(b1-4)GlcNAc(b1-2)Man = molecular target: Gal(b1-4)GlcNAc(b1-2)Man
Method in brief: as §1

[15] = molecular target: Gal(b1-4)GlcNAc(b1-2)Man(a1-3)Man(b1-4)GlcNAc(b1-4)GlcNAc
Method in brief: as §1

[16] = molecular target: Gal(b1-4)GlcNAc(b1-2)Man(a1-3)[Gal(b1-4)GlcNAc(b1-2)Man(a1-6)]Man(b1-4)GlcNAc(b1-4)GlcNAc
Method in brief: as §1

[17] = molecular target: Gal(b1-4)GlcNAc(b1-2)Man(a1-3)[Gal(b1-4)GlcNAc(b1-2)Man(a1-6)]Man(b1-4)GlcNAc(b1-4)[Fuc(a1-6)]GlcNAc
Method in brief: as §1

[18] = molecular target: Gal(b1-4)GlcNAc(b1-2)Man(a1-3)[Gal(b1-4)GlcNAc(b1-2)Man(a1-6)][Gal(b1-4)GlcNAc(b1-4)]Man(b1-4)GlcNAc(b1-4)[Fuc(a1-6)]GlcNAc
Method in brief: as §1

[19] = molecular target: Gal(b1-4)GlcNAc(b1-2)Man(a1-3)[Gal(b1-4)GlcNAc(b1-2)Man(a1-6)][GlcNAc(b1-4)]Man(b1-4)GlcNAc(b1-4)[Fuc(a1-6)]GlcNAc
Method in brief: as §1

[20] = molecular target: Gal(b1-4)GlcNAc(b1-2)Man(a1-3)[GlcNAc(b1-2)Man(a1-6)]Man(b1-4)GlcNAc(b1-4)GlcNAc
Method in brief: as §1

[21] = molecular target: Gal(b1-4)GlcNAc(b1-2)Man(a1-3)[GlcNAc(b1-4)][Gal(b1-4)GlcNAc(b1-2)Man(a1-6)]Man(b1-4)GlcNAc(b1-4)GlcNAc
Method in brief: as §1

[22] = molecular target: Gal(b1-4)GlcNAc(b1-2)Man(a1-3)[Man(a1-6)]Man(b1-4)GlcNAc(b1-4)GlcNAc
Method in brief: as §1

[23] = molecular target: Gal(b1-4)GlcNAc(b1-2)Man(a1-6)Man(b1-4)GlcNAc(b1-4)GlcNAc
Method in brief: as §1

[24] = molecular target: Gal(b1-4)GlcNAc(b1-2)Man(a1-6)[GlcNAc(b1-2)Man(a1-3)]Man(b1-4)GlcNAc(b1-4)GlcNAc
Method in brief: as §1

[25] = molecular target: Gal(b1-4)GlcNAc(b1-2)Man(a1-6)[Man(a1-3)]Man(b1-4)GlcNAc(b1-4)GlcNAc
Method in brief: as §1

[26] = molecular target: Gal(b1-4)GlcNAc(b1-2)[Gal(b1-4)GlcNAc(b1-4)]Man(a1-3)[Gal(b1-4)GlcNAc(b1-2)Man(a1-6)]Man(b1-4)GlcNAc(b1-4)GlcNAc
Method in brief: as §1

[27] = molecular target: Gal(b1-4)GlcNAc(b1-2)[Gal(b1-4)GlcNAc(b1-4)]Man(a1-3)[Gal(b1-4)GlcNAc(b1-2)[Gal(b1-4)GlcNAc(b1-6)]Man(a1-6)]Man(b1-4)GlcNAc(b1-4)GlcNAc
Method in brief: as §1

[28] = molecular target: Gal(b1-4)GlcNAc(b1-2)[Gal(b1-4)GlcNAc(b1-4)]Man(a1-3)[GlcNAc(b1-4)][Gal(b1-4)GlcNAc(b1-2)Man(a1-6)]Man(b1-4)GlcNAc(b1-4)GlcNAc
Method in brief: as §1

[29] = molecular target: Gal(b1-4)GlcNAc(b1-2)[Gal(b1-4)GlcNAc(b1-4)]Man(a1-3)[GlcNAc(b1-4)][Gal(b1-4)GlcNAc(b1-2)[Gal(b1-4)GlcNAc(b1-6)]Man(a1-6)]Man(b1-4)GlcNAc(b1-4)GlcNAc
Method in brief: as §1

[30] = molecular target: Gal(b1-4)GlcNAc(b1-2)[Gal(b1-4)GlcNAc(b1-6)]Man(a1-6)[Gal(b1-4)GlcNAc(b1-2)Man(a1-3)]Man(b1-4)GlcNAc(b1-4)GlcNAc
Method in brief: as §1

[31] = molecular target: Gal(b1-4)GlcNAc(b1-2)[Gal(b1-4)GlcNAc(b1-6)]Man(a1-6)[Gal(b1-4)GlcNAc(b1-2)Man(a1-3)]Man(b1-4)GlcNAc(b1-4)[Fuc(a1-6)]GlcNAc
Method in brief: as §1

[32] = molecular target: Gal(b1-4)GlcNAc(b1-2)[Gal(b1-4)GlcNAc(b1-6)]Man(a1-6)[GlcNAc(b1-4)][Gal(b1-4)GlcNAc(b1-2)Man(a1-3)]Man(b1-4)GlcNAc(b1-4)GlcNAc
Method in brief: as §1

[33] = molecular target: Gal(b1-4)GlcNAc(b1-2)[Gal(b1-4)GlcNAc(b1-6)]Man(a1-6)[GlcNAc(b1-4)][Gal(b1-4)GlcNAc(b1-2)[Gal(b1-4)GlcNAc(b1-4)]Man(a1-3)]Man(b1-4)GlcNAc(b1-4)[Fuc(a1-6)]GlcNAc
Method in brief: as §1

[34] = molecular target: Gal(b1-4)GlcNAc(b1-3)Gal(b1-3)GalNAc
Method in brief: as §1

[35] = molecular target: Gal(b1-4)GlcNAc(b1-3)Gal(b1-3)GlcNAc
Method in brief: as §1

[36] = molecular target: Gal(b1-4)GlcNAc(b1-3)Gal(b1-4)Glc
Method in brief: as §1

[37] = molecular target: Gal(b1-4)GlcNAc(b1-3)Gal(b1-4)GlcNAc
Method in brief: as §1

[38] = molecular target: Gal(b1-4)GlcNAc(b1-3)Gal(b1-4)GlcNAc(b1-2)Man(a1-3)[Gal(b1-4)GlcNAc(b1-3)Gal(b1-4)GlcNAc(b1-2)Man(a1-6)]Man(b1-4)GlcNAc(b1-4)GlcNAc
Method in brief: as §1

[39] = molecular target: Gal(b1-4)GlcNAc(b1-3)Gal(b1-4)GlcNAc(b1-2)Man(a1-3)[Gal(b1-4)GlcNAc(b1-3)Gal(b1-4)GlcNAc(b1-2)Man(a1-6)]Man(b1-4)GlcNAc(b1-4)[Fuc(a1-6)]GlcNAc
Method in brief: as §1

B1: PX9961V-pdi-562-26-562 (Parabacteroides distasonis) (protein)
chain: EIFSEITTDNYYQNSNNIYAALVNNYAKAFSTGWSDARYFLQEVTADQLMIPTRGKHGYNGGEYVRLHEHKWTVEENFVYNGWAAPFQGIALCNNTLSDFENLDFSTFKLTEETKNEYIAELRALRVWNYMFLIDFFRHVPIVTDIEEVKAQSTPLEVFNFMESELLAILPDLPKNRGVSRFDQAGVASILVRLYLNAEKWIGISKYDECEQMAQAILDGKYGEYSIDPDYRGPFRSGINGYRSKENIMEFAIKKNYFEASWLYNMWMHYQDRYSLDNDWQGWNGGNLAPSRDLYGNLYQDKLGMPFEKFPDGDIRKKAFRVISNDGDYEGFFLMGTQYKFDYEKGYGFTDEVITGTEEYNGKPLVYVDQVGRFSEGETGLAKGSHVIYGEENTGYRLIKFPWLPQSKDLFQMNSIPEIRLAEIYYSLAECKYRSGDKIGAARLLDVVRKRYYKAEDWSKFSYESNISKLTDDEFVDELGREFIGERHRRIDLIRWNRFSEGAWWDKTPDATNQDVFPIPYRALNANPLLKQTTAGF
Question: Which “glycan array binding signal (z-score)” value [1] does the source give for B1 here?
Answer: 0.643

Question: And the “glycan array binding signal (z-score)” value (Gal(b1-3)GlcNAc6S)?
Answer: -0.396

Question: What about the “glycan array binding signal (z-score)” value [2] of the same binder?
Answer: -0.252

Question: What about the “glycan array binding signal (z-score)” value [3] of the same binder?
Answer: 0.083

Question: What about the “glycan array binding signal (z-score)” value [4] of the same binder?
Answer: 1.25

Question: And the “glycan array binding signal (z-score)” value [5]?
Answer: 0.256

Question: What about the “glycan array binding signal (z-score)” value [6] of the same binder?
Answer: -0.394

Question: And the “glycan array binding signal (z-score)” value [7]?
Answer: 6.13

Question: And the “glycan array binding signal (z-score)” value [8]?
Answer: -0.026

Question: What about the “glycan array binding signal (z-score)” value [9] of the same binder?
Answer: -0.358

Question: And the “glycan array binding signal (z-score)” value [10]?
Answer: -0.295

Question: What about the “glycan array binding signal (z-score)” value [11] of the same binder?
Answer: -0.399

Question: And the “glycan array binding signal (z-score)” value (Gal(b1-4)Gal)?
Answer: -0.112

Question: And the “glycan array binding signal (z-score)” value [12]?
Answer: -0.842

Question: And the “glycan array binding signal (z-score)” value [13]?
Answer: -0.377

Question: What about the “glycan array binding signal (z-score)” value (Gal(b1-4)Glc) of the same binder?
Answer: -0.606

Question: And the “glycan array binding signal (z-score)” value (Gal(b1-4)Glc6S)?
Answer: -0.159

Question: What about the “glycan array binding signal (z-score)” value (Gal(b1-4)GlcNAc) of the same binder?
Answer: -0.082

Question: And the “glycan array binding signal (z-score)” value [14]?
Answer: -0.52

Question: What about the “glycan array binding signal (z-score)” value (Gal(b1-4)GlcNAc(b1-2)Man) of the same binder?
Answer: -0.109

Question: What about the “glycan array binding signal (z-score)” value [15] of the same binder?
Answer: -0.492

Question: What about the “glycan array binding signal (z-score)” value [16] of the same binder?
Answer: -0.221

Question: What about the “glycan array binding signal (z-score)” value [17] of the same binder?
Answer: -0.101

Question: What about the “glycan array binding signal (z-score)” value [18] of the same binder?
Answer: -0.645

Question: And the “glycan array binding signal (z-score)” value [19]?
Answer: -0.74

Question: What about the “glycan array binding signal (z-score)” value [20] of the same binder?
Answer: -0.368

Question: What about the “glycan array binding signal (z-score)” value [21] of the same binder?
Answer: 1.53

Question: And the “glycan array binding signal (z-score)” value [22]?
Answer: -0.16

Question: What about the “glycan array binding signal (z-score)” value [23] of the same binder?
Answer: 0.439

Question: What about the “glycan array binding signal (z-score)” value [24] of the same binder?
Answer: 0.185

Question: And the “glycan array binding signal (z-score)” value [25]?
Answer: 0.897

Question: What about the “glycan array binding signal (z-score)” value [26] of the same binder?
Answer: -0.472

Question: What about the “glycan array binding signal (z-score)” value [27] of the same binder?
Answer: -0.483

Question: And the “glycan array binding signal (z-score)” value [28]?
Answer: -0.171

Question: And the “glycan array binding signal (z-score)” value [29]?
Answer: -0.137

Question: And the “glycan array binding signal (z-score)” value [30]?
Answer: 1.12

Question: And the “glycan array binding signal (z-score)” value [31]?
Answer: -0.02

Question: What about the “glycan array binding signal (z-score)” value [32] of the same binder?
Answer: 1.28

Question: What about the “glycan array binding signal (z-score)” value [33] of the same binder?
Answer: -0.471

Question: And the “glycan array binding signal (z-score)” value [34]?
Answer: 0.14

Question: What about the “glycan array binding signal (z-score)” value [35] of the same binder?
Answer: -0.125

Question: And the “glycan array binding signal (z-score)” value [36]?
Answer: -0.34

Question: What about the “glycan array binding signal (z-score)” value [37] of the same binder?
Answer: -0.878

Question: And the “glycan array binding signal (z-score)” value [38]?
Answer: 0.178

Question: What about the “glycan array binding signal (z-score)” value [39] of the same binder?
Answer: 4.04
